Biological target: T1, CD37 (Homo sapiens, UniProt P11049)
T1 sequence (P11049 1-281): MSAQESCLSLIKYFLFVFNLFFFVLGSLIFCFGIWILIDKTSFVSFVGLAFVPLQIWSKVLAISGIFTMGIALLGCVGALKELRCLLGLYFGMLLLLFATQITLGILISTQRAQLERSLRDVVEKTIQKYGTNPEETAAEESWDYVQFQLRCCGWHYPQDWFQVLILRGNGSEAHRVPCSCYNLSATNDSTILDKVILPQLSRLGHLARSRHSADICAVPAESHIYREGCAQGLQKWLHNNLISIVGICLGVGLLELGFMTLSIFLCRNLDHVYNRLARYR
Assay: FMAT competition binding assay against labeled CAS-006 on Ramos cells
Parameters: CD-37 found on Ramos cells (a B-lymphoblastoid cell line derived from a Burkitt lymphoma); endogenous in cells; host or cells: Ramos cells
Settings: competition with FMAT Blue labeled CAS-006
Source text: A competition assay was used to compare the binding affinity of different anti-CD37 specific small modular immunopharmaceutical (SMIP) molecules to CD-37 found on Ramos cells (a B-lymphoblastoid cell line derived from a Burkitt lymphoma). An SEC purified chimeric anti-CD37 SMIP molecule (CAS-006, SEQ ID NO:247) was labeled with the FMAT Blue® fluorescence dye (Applied Biosystems) and used as the standard to compete with purified unlabeled chimeric anti-CD37 SMIP molecule (positive control) and purified unlabeled humanized anti-CD37 SMIP test molecules. […] Briefly, the reagent FMAT Blue® labeled chimeric anti-CD37 SMIP molecule was diluted to 2 μg/ml in FACS blocking buffer and the purified protein samples (CAS-001 (SEQ ID NO:6), CAS-002 (SEQ ID NO:48), CAS-003 (SEQ ID NO:52), and CAS-024 (SEQ ID NO:253)) were serially diluted 1:2 to concentrations ranging from 50 μg/ml to 0.02 μg/ml. Ramos cells were harvested at 1,000 rpm for 5 minutes and resuspend in FACS blocking buffer at 4×10^6 cells/10 ml buffer. To each well of a black 96-well plate the following was added: 50 μl sample, 50 μl FMAT Blue® labeled chimeric anti-CD37 SMIP molecule, and 50 μl Ramos cells (4×10^4/well). The plates were incubated at room temperature for 30 min and read on an 8200 Cellular Detection System (Applied Biosystems) gated for middle cell size and low signal.
A competition assay as described in Example 4 was used to compare the binding affinity of different mouse-human hybrid anti-CD37 SMIP molecules compared to CAS-024 binding to Ramos cells. An SEC purified chimeric anti-CD37 SMIP molecule (CAS-006, SEQ ID NO:247) was labeled with the FMAT Blue® fluorescence dye (Applied Biosystems) and used as the standard to compete with purified unlabeled chimeric anti-CD37 SMIP molecule (CAS-006, positive control) and purified unlabeled humanized anti-CD37 SMIP test molecules—-CAS-002 (SEQ ID NO:48), CAS-003 (SEQ ID NO:52), CAS-014 (SEQ ID NO:251), CAS-017 (SEQ ID NO:252), and CAS-024 (SEQ ID NO:253).

Molecule | binding affinity for CD37 compared with parent CAS-006
CAS-001: humanized anti-CD37 SMIP, Vk3: VH5-51, SEQ ID NO:6 (protein, CD37 specific binding protein) MEAPAQLLFLLLLWLPDTTGEIVLTQSPATLSLSPGERATLSCRTSENVYSYLAWYQQKPGQAPRLLIYFAKTLAEGIPARFSGSGSGTDFTLTISSLEPEDFAVYYCQHHSDNPWTFGQGTKVEIKGGGGSGGGGSGGGGTGEVQLVQSGAEVKKPGESLKISCKGSGYSFTGYNMNWVRQMPGKGLEWMGNIDPYYGGTTYNRKFKGQVTISADKSISTAYLQWSSLKASDTAMYYCARSVGPMDYWGRGTLVTVSSDQ[sequence of human IgG1 Fc with changes omitted] | significantly less than CAS-006 or CAS-024
CAS-062: Vk3: CDR-H3 JH6 CDRL1 (T25A); CDRH3 (Y102V), SEQ ID NO:254 (protein, CD37 specific binding protein) EIVLTQSPATLSLSPGERATLSCRASENVYSYLAWYQQKPGQAPRLLIYFAKTLAEGIPARFSGSGSGTDFTLTISSLEPEDFAVYYCQHHSDNPWTFGQGTKVEIKGGGGSGGGGSGGGGTGEVQLVQSGAEVKKPGESLKISCKGSGYSFTGYNMNWVRQMPGKGLEWMGNIDPYYGGTTYNRKFKGQVTISADKSISTAYLQWSSLKASDTAMYYCARSVGPMDVWGQGTTVTVSSDQ[sequence of human IgG1 Fc with changes omitted] | detectable but severely decreased binding
CAS-014: mouse-human hybrid anti-CD37 SMIP, mVH: Vk3, SSC-P hinge, SEQ ID NO:24 (251) (protein, CD37 specific binding protein) MEAPAQLLFLLLLWLPDTTGAVQLQQSGPESEKPGASVKISCKASGYSFTGYNMNWVKQNNGKSLEWIGNIDPYYGGTTYNRKFKGKATLTVDKSSSTAYMQLKSLTSEDSAVYYCARSVGPMDYWGQGTSVTVSSGGGGSGGGGSGGGGSGGGGSASEIVLTQSPATLSLSPGERATLSCRTSENVYSYLAWYQQKPGQAPRLLIYFAKTLAEGIPARFSGSGSGTDFTLTISSLEPEDFAVYYCQHHSDNPWTFGQGTKVEIKGSS[sequence of human IgG1 Fc with changes omitted] | higher than CAS-006
CAS-017: human-mouse hybrid anti-CD37 SMIP, Vk3: mVH, SSC-P hinge, SEQ ID NO:30 (252) (protein, CD37 specific binding protein) MEAPAQLLFLLLLWLPDTTGEIVLTQSPATLSLSPGERATLSCRTSENVYSYLAWYQQKPGQAPRLLIYFAKTLAEGIPARFSGSGSGTDFTLTISSLEPEDFAVYYCQHHSDNPWTFGQGTKVEIKGGGGSGGGGSGGGGASAVQLQQSGPESEKPGASVKISCKASGYSFTGYNMNWVKQNNGKSLEWIGNIDPYYGGTTYNRKFKGKATLTVDKSSSTAYMQLKSLTSEDSAVYYCARSVGPMDYWGQGTSVTVSSS[sequence of human IgG1 Fc with changes omitted] | higher than CAS-006
CAS-003: humanized anti-CD37 SMIP, Vk3: VH5 JH5a CDRL1 (T25A); CDRH3 (M99F; Y102S), SEQ ID NO:52 (protein, CD37 specific binding protein) MEAPAQLLFLLLLWLPDTTGEIVLTQSPATLSLSPGERATLSCRASENVYSYLAWYQQKPGQAPRLLIYFAKTLAEGIPARFSGSGSGTDFTLTISSLEPEDFAVYYCQHHSDNPWTFGQGTKVEIKGGGGSGGGGSGGGGTGEVQLVQSGAEVKKPGESLKISCKGSGYSFTGYNMNWVRQMPGKGLEWMGNIDPYYGGTTYNRKFKGQVTISADKSISTAYLQWSSLKASDTAMYYCARSVGPFDSWGQGTLVTVSSDQ[sequence of human IgG1 Fc with changes omitted] | lower binding affinity

— patent US9101609B2, “CD37 immunotherapeutic and combination with bifunctional chemotherapeutic thereof” (EMERGENT PRODUCT DEVELOPMENT SEATTLE, LLC, priority 2008, dated 2015)
